# Experimental data from the supplement of paper PMC11417369.
# ± gives the standard deviation of the averaged measurements. The list shows a part of the results.
# System: PfAP2-EXP AP2 domain (GST-tagged)
# Test: gcPBM binding intensity (ln(normalized median fluorescence intensity)); higher = stronger DNA binding
# Method in brief: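 Using an Agilent 4 × 180k array, primer-extended double-stranded 36-bp intergenic genomic probes and negative controls were exposed for 1 h to GST-fused P. falciparum DNA-binding domains expressed in E. coli. Binding was carried out in 1× PBS with 1% milk, 0.2 mg/ml BSA, 0.5% salmon testes DNA and 0.03% Triton X-100, and protein was detected with Alexa488 anti-GST antibody and a 488 nm scan. Binding intensity is the highest Masliner-normalised natural-log median intensity across replicate spots of either probe orientation.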
row,Sequence,gcPBM binding intensity (ln)
1,TTAATAATTAATTATAGTACACATTTATATTAATAA [XGTACX_site190],8.38 ± 0.36
2,TTTAATTTTCGGTGTGCACACAACTATGAGTTTTTA [CACACA_site3034],8.84 ± 0.22
3,TTTAAAAAAAAAAATACACACATAAAAATTTTCAAA [CACACA_site703],8.31 ± 0.63
4,TCAAAAAAAATTTTAGTGCATATTTTAGTCAAAACA,8.38 ± 0.16
5,CATTCTACAATAAAAAGTACATATATATATTATATA [XGTACX_site921],8.43 ± 0.34
6,ACACATATAATAGTTACATGCAAAAATACTTTTATT [TGCATGCA_site785],8.78 ± 0.28
7,TTTTTATAACATAAAAGTACATATTTTTAATTTAAT [XGTACX_site4394],8.05 ± 0.4
8,AAATTAAATGATAGAGCATGCGCTAAAAATGAGAAA [TGCATGCA_site937],9.18 ± 0.42
9,TAATATTTCGTTAAGTTTTAAAGAAAAAAAAAAAAA [CACACA_negctrl_site1253],8.3 ± 0.53
10,ATTTAAATAATATGTACACACATTTAAAAAGTTATA [CACACA_site7347],8.37 ± 0.14
11,AAATTAAAAATAATTACACACATAGAAAAGTTATAT [CACACA_site7137],8.61 ± 0.3
12,TTTTCAGAAAGACATGCATACAAAAATAAAAAAGAT [TGCATGCA_site814],9.35 ± 0.42
13,TTTTGCAAATATTACTGTACACAATCTCATATAATT [XGTACX_site2584],8.77 ± 0.45
14,ACCCAAGAGAAAAGAGAAAGAAATATGTGTATATTG [GTGCAC_negctrl_site214],8.54 ± 0.42
15,AAAAAAAACAGACACACACACACATATACATACATA [CACACA_site2665],8.41 ± 0.38
16,ATATATATATATATAACATGCAAAGTTCAAAAAAAA [TGCATGCA_site943],10 ± 0.14
17,TTATAGTAATAATAATGTACATTTATACACATATAT [XGTACX_site1965],8.56 ± 0.31
18,TTTTTTTTATTATAAATATATATATTATAAAACGAA [XGTACX_negctrl_site189],8.29 ± 0.36
19,TTCTTTGTTTTTTTTTTTTTTTTAAAAGATAATATT [XGTACX_negctrl_site381],8.43 ± 0.25
20,TTTATTTTTCATTGGGGTACACAAGTTTATTTTTGA [XGTACX_site4262],8.96 ± 0.47
21,ATATCGTTTTTAAATTGTACATTCACTATAGAATAA [XGTACX_site6442],8.45 ± 0.042
22,ATTTTTTCTTTTCGATGTACCCTTCTTATTCTTTAT [XGTACX_site3782],9.26 ± 0.69
23,TATATCGCCTTCAAAAGTACTCATATAAAAAAAAAA [XGTACX_site7123],8.36 ± 0.27
24,ATATATTTATTTTGTGCACACAACGCAAACCTTTTA [CACACA_site3508],9.165 ± 0.078
